Results on one compound are retold here after publication PMC11527973, “Efficient characterization of multiple binding sites of small molecule imaging ligands on amyloid-beta, tau and alpha-synuclein” (European Journal of Nuclear Medicine and Molecular Imaging, 2024).

The target in this assay is recombinant K18 tau fibrils (Homo sapiens, UniProt P10636). The assay can be described thus: SPR binding kinetics on immobilized K18-tau fibrils. The arrangement: K18 tau was detected using a monoclonal tau antibody (anti-tau 4-repeat isoform RD4, clone 1E1/A6); made in house; host or cells: E. coli. To be noted: surface HC1500M, sum2exp model, two components per analyte, read-out: KD, equilibrium dissociation constant. As for the experimental part:
SPR measurements were conducted in HEPES-buffered saline (HBS, Teknova, USA) buffer at 20 °C using Biacore instruments T200 and S200 (Cytiva, Uppsala, Sweden). Aβ42, tau, and αSyn recombinant fibrils were immobilized in the flow cell of sensor chips produced by Xantec (Düsseldorf, Germany) and Cytiva by coupling fibril amine groups to sulfo-N-hydroxysuccinimide (sulfo-NHS)-activated carboxylic acid groups on the chip surface. Since no nonbinding fibril(s) were available, the reference flow cell remained empty. […]
The immobilized fibrils were stable for a few days. Kinetic constants for binding were determined by injection of a dilution series of 5–8 concentrations of ligand in HBS buffer at a flow rate of 30 µL/minute in duplicate ("full kinetics").
The data was evaluated using BiaEvaluate v2.03 software (Cytiva, Sweden). Binding kinetics were analyzed globally using different kinetic models, including 1 + 1, a sum of two exponentials model ("heterogeneous ligand" in terms of BiaEvaluate, sum2exp), and a sum of three exponentials model (sum3exp) that was created using the script editor of the software.
(Surface plasmon resonance follows binding to a sensor surface in real time, without labels.)

pKd: −log10 of the molar value. Like-named read-outs stand apart in the source and are kept apart here. Some values that stand alone complete this part of the results.

Chain of UniProt P10636 (P10636 561-685 limits assumed): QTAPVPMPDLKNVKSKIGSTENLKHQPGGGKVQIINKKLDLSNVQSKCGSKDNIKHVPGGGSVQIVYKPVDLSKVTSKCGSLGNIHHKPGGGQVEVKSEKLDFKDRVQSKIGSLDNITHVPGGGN

Regarding `O=C(O)Cc1cc(-c2ccc(-c3ccc(C(=O)O)s3)s2)sc1-c1ccc(-c2sc(-c3ccc(-c4ccc(C(=O)O)s4)s3)cc2CC(=O)O)s1` [h-FTAA, Hepta-formylthiophene acetic acid], the pKd (commonly the negative decadic logarithm of the Kd, by convention in mol/L) was 5.55 (first binding component) and 3.95 (second binding component).
